Measured values reported in US7541342B2, “Use of PKC-activating compounds as cardioprotectants and as apoptosis-inducing anti-tumor agents” (University of Tennessee Research Foundation, priority 2005, dated 2009).

Tests used:
Bcr-Abl = Bcr-Abl expression immunoblot in K562 cells
cardiomyocytes = assay: Monitoring of ROS generation (CM-H2DCFDA oxidation); type: cell-based, rat; conditions: 2.0 μM DOX, 2.0 μM AD 198 or 3.0 μM H2O2 for 2 hr
Text: Primary murine cardiocyocytes from female C57 mice (Harlan, Indianapolis, Ind., United States of America) isolated as described by Lester, J. W., et al. (Am. J. Physiol. Heart Circ. Physiol., 271, H1778-J1785 (1996)), were preloaded with 5-(and-6)-chloromethyl-2′,7′-dichlorodihydrofluorescein diacetate, acetyl ester (CM-H2DCFDA; Molecular Probes, Eugene, Oreg., United States of America) in PBS for 1 hr, followed by removal of PBS and replacement with warm RPMI-1640 medium with 10% FBS. […] Cellular fluorescence was quantified by flow cytometry at an […] wavelength of 525 nm.

[1] = Chronic anthracycline cardiotoxicity model (Bertazzoli); conditions: DOX 1.15 to 4.6 mg/kg
[2] = i.v. single dose LD50 (30 days); conditions: mice
PKC-ε = assay: PKC translocation immunoblot in primary cardiomyocytes; type: cell-based, rat; conditions: 0.1 μM
Text: FIG. 22 is an immunoblot analysis of PKC translocation in drug-treated rat cardiomyocytes. […] Total membrane fractions were isolated by differential centrifugation in the absence of non-ionic detergent, subjected to SDS-PAGE and prepared for immunoblot analysis using antibodies against the PKC isoforms.

COc1cccc2c1C(=O)c1c(O)c3c(c(O)c1C2=O)C[C@@](O)(C(=O)CO)CC3O[C@H]1C[C@H](NCc2ccccc2)[C@H](O)[C@H](C)O1 (some centres unmarked) [AD 288, N-Benzyladriamycin]
loss of Bcr-Abl expression, combination (Bcr-Abl; 0.25 μM combined with 10 μM imatinib, after 24 hours): 90% | Bcr-Abl expression, single agent (Bcr-Abl; 72 hrs, imatinib 10 μM, AD 198 or AD 288 0.25 μM): slight decrease

COc1cccc2c1C(=O)c1c(O)c3c(c(O)c1C2=O)C[C@@](O)(C(=O)CO)C[C@@H]3O[C@H]1C[C@H](N)[C@H](O)[C@H](C)O1 [DOX, Doxorubicin]
increase in CM-H2DCFDA fluorescence (cardiomyocytes): 37 fold | animals with overt cardiac damage [1]: 90-100% | i.v. single dose LD50 (30 days) [2]: 23 mg/kg

OO [H2O2, hydrogen peroxide]
increase in CM-H2DCFDA fluorescence (cardiomyocytes): approximately 26 fold

CCCCCCCCCCCCCC(=O)O[C@@H]1[C@@H](C)[C@@]2(O)[C@@H](C=C(CO)C[C@]3(O)C(=O)C(C)=C[C@@H]23)[C@@H]2C(C)(C)[C@]12OC(C)=O [PMA, reference compound]
increase in membrane-associated PKC-ε versus DMSO (PKC-ε; 5 min exposure): 5 fold | decrease of membrane-associated PKC-ε (PKC-ε; after 30 min): approximately 50%
